The labels stand for the following.
T1: IL-7Rα/IL-2Rγ on human T cells (human, UniProt P16871 21-459; P31785 23-369)
T1 sequence (looked up) 1: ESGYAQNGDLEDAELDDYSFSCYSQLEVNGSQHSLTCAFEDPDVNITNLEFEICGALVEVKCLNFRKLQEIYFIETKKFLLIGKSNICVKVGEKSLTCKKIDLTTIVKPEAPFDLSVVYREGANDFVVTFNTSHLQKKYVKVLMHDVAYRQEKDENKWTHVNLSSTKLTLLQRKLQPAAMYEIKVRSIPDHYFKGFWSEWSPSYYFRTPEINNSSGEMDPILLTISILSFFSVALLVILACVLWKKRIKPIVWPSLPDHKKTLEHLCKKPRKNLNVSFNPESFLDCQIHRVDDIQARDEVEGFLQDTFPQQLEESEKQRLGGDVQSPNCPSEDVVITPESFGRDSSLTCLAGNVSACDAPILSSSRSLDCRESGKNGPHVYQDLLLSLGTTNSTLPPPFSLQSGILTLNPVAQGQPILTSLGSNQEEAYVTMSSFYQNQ
T1 sequence (looked up) 2: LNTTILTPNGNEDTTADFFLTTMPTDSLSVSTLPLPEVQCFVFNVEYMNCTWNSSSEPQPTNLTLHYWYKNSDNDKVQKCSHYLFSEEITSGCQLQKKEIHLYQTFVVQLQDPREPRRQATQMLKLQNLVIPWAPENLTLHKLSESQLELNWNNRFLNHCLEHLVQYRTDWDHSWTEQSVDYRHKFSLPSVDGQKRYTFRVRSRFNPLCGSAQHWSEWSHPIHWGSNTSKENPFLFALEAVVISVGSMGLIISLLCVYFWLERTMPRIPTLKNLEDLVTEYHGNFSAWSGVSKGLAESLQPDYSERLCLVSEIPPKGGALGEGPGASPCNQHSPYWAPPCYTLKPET

T2: murine IL7Ra-IL2Rg-Fc biotin (murine, UniProt P16872 21-239; P34902 23-263)
T2 construct: extracellular domain; Heterodimer of the ECD of IL7Ra and IL2Rg chains fused to an Fc; also called murine IL7Ralpha-IL2Rgamma-Fc heterodimer; murine IL7 receptor; not shown: Fc part and avi tag; Fc part
T2 sequence (looked up) 1: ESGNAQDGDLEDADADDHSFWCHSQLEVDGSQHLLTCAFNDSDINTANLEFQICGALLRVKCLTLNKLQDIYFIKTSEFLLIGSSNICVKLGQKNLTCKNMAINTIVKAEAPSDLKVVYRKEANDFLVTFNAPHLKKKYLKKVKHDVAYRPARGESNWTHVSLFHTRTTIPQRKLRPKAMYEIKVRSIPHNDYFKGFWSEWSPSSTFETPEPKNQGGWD
T2 sequence (looked up) 2: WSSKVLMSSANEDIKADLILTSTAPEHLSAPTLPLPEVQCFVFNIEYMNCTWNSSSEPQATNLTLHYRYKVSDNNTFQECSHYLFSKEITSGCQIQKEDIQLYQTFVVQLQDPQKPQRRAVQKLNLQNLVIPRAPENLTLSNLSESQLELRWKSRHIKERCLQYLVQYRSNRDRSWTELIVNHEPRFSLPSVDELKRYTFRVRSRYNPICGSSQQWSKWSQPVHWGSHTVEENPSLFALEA

B1: PD1-IL7wt (other)
light: DIVMTQSPDSLAVSLGERATINCKASESVDTSDNSFIHWYQQKPGQSPKLLIYRSSTLESGVPDRFSGSGSGTDFTLTISSLQAEDVAVYYCQQNYDVPWTFGQGTKVEIKRTVAAPSVFIFPPSDEQLKSGTASVVCLLNNFYPREAKVQWKVDNALQSGNSQESVTEQDSKDSTYSLSSTLTLSKADYEKHKVYACEVTHQGLSSPVTKSFNRGEC
heavy 1: EVQLLESGGGLVQPGGSLRLSCAASGFSFSSYTMSWVRQAPGKGLEWVATISGGGRDIYYPDSVKGRFTISRDNSKNTLYLQMNSLRAEDTAVYYCVLLTGRVYFALDSWGQGTLVTVSSASTKGPSVFPLAPSSKSTSGGTAALGCLVKDYFPEPVTVSWNSGALTSGVHTFPAVLQSSGLYSLSSVVTVPSSSLGTQTYICNVNHKPSNTKVDKKVEPKSCDKTHTCPPCPAPEAAGGPSVFLFPPKPKDTLMISRTPEVTCVVVDVSHEDPEVKFNWYVDGVEVHNAKTKPREEQYNSTYRVVSVLTVLHQDWLNGKEYKCKVSNKALGAPIEKTISKAKGQPREPQVCTLPPSRDELTKNQVSLSCAVKGFYPSDIAVEWESNGQPENNYKTTPPVLDSDGSFFLVSKLTVDKSRWQQGNVFSCSVMHEALHNHYTQKSLSLSPGK
heavy 2: EVQLLESGGGLVQPGGSLRLSCAASGFSFSSYTMSWVRQAPGKGLEWVATISGGGRDIYYPDSVKGRFTISRDNSKNTLYLQMNSLRAEDTAVYYCVLLTGRVYFALDSWGQGTLVTVSSASTKGPSVFPLAPSSKSTSGGTAALGCLVKDYFPEPVTVSWNSGALTSGVHTFPAVLQSSGLYSLSSVVTVPSSSLGTQTYICNVNHKPSNTKVDKKV[human IgG1 Fc with changes left out]GGGGSGGGGSGGGGSDCDIEGKDGKQYESVLMVSIDQLLDSMKEIGSNCLNNEFNFFKRHICDANKEGMFLFRAARKLRQFLKMNSTGDFDLHLLKVSEGTTILLNCTGQVKGRKPAALGEAQPTKSLEENKSLKEQKKLNDLCFLKRLLQEIKTCWNKILMGTKEH
notes: also called PDI-IL7wt; PD1-ILwt
B2: PD1-IL7-VAR18 (K81E) (other)
light: B1 light
heavy 1: B1 heavy 1
heavy 2: EVQLLESGGGLVQPGGSLRLSCAASGFSFSSYTMSWVRQAPGKGLEWVATISGGGRDIYYPDSVKGRFTISRDNSKNTLYLQMNSLRAEDTAVYYCVLLTGRVYFALDSWGQGTLVTVSSASTKGPSVFPLAPSSKSTSGGTAALGCLVKDYFPEPVTVSWNSGALTSGVHTFPAVLQSSGLYSLSSVVTVPSSSLGTQTYICNVNHKPSNTKVDKKV[human IgG1 Fc with changes left out]GGGGSGGGGSGGGGSDCDIEGKDGKQYESVLMVSIDQLLDSMKEIGSNCLNNEFNFFKRHICDANKEGMFLFRAARKLRQFLKMNSTGDFDLHLLEVSEGTTILLNCTGQVKGRKPAALGEAQPTKSLEENKSLKEQKKLNDLCFLKRLLQEIKTCWNKILMGTKEH
notes: Format as m1; IL-7 with K81E; also called PD1-IL7 -K81E (Var18); PD1-IL7v variant 18
B3: PD1-IL7-VAR21 (G85E) (other)
light: B1 light
heavy 1: B1 heavy 1
heavy 2: EVQLLESGGGLVQPGGSLRLSCAASGFSFSSYTMSWVRQAPGKGLEWVATISGGGRDIYYPDSVKGRFTISRDNSKNTLYLQMNSLRAEDTAVYYCVLLTGRVYFALDSWGQGTLVTVSSASTKGPSVFPLAPSSKSTSGGTAALGCLVKDYFPEPVTVSWNSGALTSGVHTFPAVLQSSGLYSLSSVVTVPSSSLGTQTYICNVNHKPSNTKVDKKV[human IgG1 Fc with changes left out]GGGGSGGGGSGGGGSDCDIEGKDGKQYESVLMVSIDQLLDSMKEIGSNCLNNEFNFFKRHICDANKEGMFLFRAARKLRQFLKMNSTGDFDLHLLKVSEETTILLNCTGQVKGRKPAALGEAQPTKSLEENKSLKEQKKLNDLCFLKRLLQEIKTCWNKILMGTKEH
notes: Format as m1; IL-7 with G85E; also called PD1-IL7 -G85E (Var21); PD1-IL7v variant 21

One test concerns the target T1, IL-7Rα/IL-2Rγ on human T cells. As to the kind of experiment: cell-based or functional assay.
B1: the “fold increase in EC50, EC50 [PD1+]/EC50 PD1-IL7wt [PD1+]” value stood at 1 fold.

Take B2: the “fold increase in EC50, EC50 [PD1+]/EC50 PD1-IL7wt [PD1+]” value came to 4.3 fold.

Take B3: the “fold increase in EC50, EC50 [PD1+]/EC50 PD1-IL7wt [PD1+]” value was 6.4 fold.

In the next test the target is human PD-1 on T cells (human, UniProt Q15116 25-288). Description: cell-based or functional assay.
Sequence of UniProt Q15116 (Q15116 25-288 limits assumed): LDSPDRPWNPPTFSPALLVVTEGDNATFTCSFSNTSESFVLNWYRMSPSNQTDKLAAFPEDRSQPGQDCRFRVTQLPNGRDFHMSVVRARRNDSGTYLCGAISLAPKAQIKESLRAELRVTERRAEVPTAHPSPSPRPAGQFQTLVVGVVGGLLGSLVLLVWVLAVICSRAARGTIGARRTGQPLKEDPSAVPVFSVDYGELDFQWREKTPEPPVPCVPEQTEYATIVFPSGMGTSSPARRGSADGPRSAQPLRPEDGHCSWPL
For B1, the “fold increase in EC50, EC50 [with PD1bl]/EC50 [PD1+]” value came out at 1.5 fold.

For the molecule B2, the “fold increase in EC50, EC50 [with PD1bl]/EC50 [PD1+]” value is 10.8 fold.

B3: the “fold increase in EC50, EC50 [with PD1bl]/EC50 [PD1+]” value came out at 12 fold.

A further test has as its target T1, IL-7Rα/IL-2Rγ on human T cells. As to the kind of experiment: cell-based or functional assay. The source holds these as a separate data set.
Regarding B1, the “EC50[active] / EC50 [active PD1-IL7wt]” value was 1 fold, the “EC50[fresh]/EC50 [fresh PD1-IL7wt]” value turned out to be 1 fold, the “STAT5-P AUC [active]” value was 200 and the “STAT5-P AUC [fresh]” value was 377.

B2: the “EC50[active] / EC50 [active PD1-IL7wt]” value came to 12 fold, the “EC50[fresh]/EC50 [fresh PD1-IL7wt]” value worked out at 62.9 fold, the “STAT5-P AUC [active]” value came to 119 and the “STAT5-P AUC [fresh]” value is 214.

In the case of B3, the “EC50[active] / EC50 [active PD1-IL7wt]” value worked out at 17.7 fold, the “EC50[fresh]/EC50 [fresh PD1-IL7wt]” value was 130 fold, the “STAT5-P AUC [active]” value came out at 104 and the “STAT5-P AUC [fresh]” value was determined as 185.

The target of a further test is T3, Human IL7Ra-IL2Rγ-Fc heterodimer (human, biotin on the avi tag).
T3 construct: Extracellular domains of IL-7Ralpha and IL-2Rgamma fused to Fc knob and Fc hole; also called hu IL7Ra-IL2Rγ-Fc avi biotin; human IL7Ra-IL2Rg-Fc biotin
As to the kind of experiment: SPR, captured via anti-P329G, receptor-Fc 2.34-300 nM, 1:1 fit. As to the method:
(§1) Surface Plasmon Resonance (SPR) experiments were performed on a Biacore 8 K with HBS-EP + 1 mg/ml BSA as running buffer. Anti-P329G Fc specific antibody (Roche internal) was directly immobilized by amine coupling on a C1 chip (Cytiva). The PD1-IL7 constructs were captured for 140 s at 5 nM. […] The dissociation phase was monitored for 800 s and triggered by switching from the sample solution to running buffer. The chip surface was regenerated after every cycle using two injections of 10 mM glycine pH 2 for 60 sec. Bulk refractive index differences were corrected for by subtracting the response obtained on the reference flow cell (containing immobilized anti P329G Fc specific IgG only). The affinity constants were derived from the kinetic rate constants by fitting to a 1:1 Langmuir binding using the Biacore evaluation software (Cytiva).
Four IL7 single variants and two IL7 double variants were compared to IL7 wild-type for binding to human IL7 receptor (Table 17). The affinity of the IL7 variants to the IL7 receptor was determined using the recombinant heterodimer of the extracellular domains of the IL7 receptor alpha chain and the common IL2 receptor gamma chain.
On the technique in general: In SPR one partner is held on a chip, and binding of the other changes the refractive index at the surface.
The term Kd denotes the concentration at which binding is half-saturated. Lower therefore signals a tighter complex. As a reminder, the koff is the first-order rate constant of dissociation. A higher koff goes with a short-lived complex. In general, kon refers to the rate constant with which the complex forms. Read a high kon as faster complex formation. Molecule B1 displayed a Kd of 0.768 nM, a koff of 0.000313 s⁻¹ and an on-rate constant (kon) of 444000 M⁻¹ s⁻¹.

Take B2: the dissociation constant (Kd) was determined as 2.26 nM, the koff was 0.000719 s⁻¹ and the kon came to 320000 M⁻¹ s⁻¹.

B3 had a Kd of 11.5 nM, a koff of 0.00313 s⁻¹ and an association rate constant (kon) of 273000 M⁻¹ s⁻¹.

Another test addresses T4, cynomolgus IL7Ra-IL2Rg-Fc biotin (cynomolgus, UniProt P13232;Q29615).
T4 construct: extracellular domain; Heterodimer of the ECD of IL7Ra and IL2Rg chains fused to an Fc; also called cynomolgus IL7Ralpha-IL2Rgamma-Fc heterodimer; cynomolgus IL7 receptor
Described as above. As to the method:
as §1
Four IL7 single variants and two IL7 double variants were compared to IL7 wild-type for binding to cynomolgus IL7 receptor (Table 18). The affinity of the IL7 variants to the IL7 receptor was determined using the recombinant heterodimer of the extracellular domains of the IL7 receptor alpha chain and the common IL2 receptor gamma chain.
The molecule B1 registered a Kd of 1.03 nM, an off-rate (koff) of 0.000355 s⁻¹ and a kon of 345000 M⁻¹ s⁻¹.

In turn, B2 registered a Kd of 3.93 nM, a koff of 0.000951 s⁻¹ and an on-rate (kon) of 242000 M⁻¹ s⁻¹.

Molecule B3 registered a Kd of 15.6 nM, a dissociation rate constant (koff) of 0.00431 s⁻¹ and an association rate constant (kon) of 277000 M⁻¹ s⁻¹.

For the next test, the target named is T2, murine IL7Ra-IL2Rg-Fc biotin. The test is described as above. As to the method:
as §1
Four IL7 single variants and two IL7 double variants were compared to IL7 wild-type for binding to murine IL7 receptor (Table 19). The affinity of the IL7 variants to the IL7 receptor was determined using the recombinant heterodimer of the extracellular domains of the IL7 receptor alpha chain and the common IL2 receptor gamma chain.
B1 came in with a Kd of 1.76 nM, a koff of 0.000749 s⁻¹ and an on-rate (kon) of 426000 M⁻¹ s⁻¹.

Molecule B2 gave a dissociation constant (Kd) of 8.88 nM, a koff of 0.00315 s⁻¹ and a kon of 347000 M⁻¹ s⁻¹.

In turn, B3 showed a dissociation constant (Kd) of 43 nM, an off-rate constant (koff) of 0.0169 s⁻¹ and a kon of 395000 M⁻¹ s⁻¹.

These data come from patent US20230192795A1 (Hoffmann-La Roche, published 2023).
